# This is one part of the list.
# System: PF3D7_0420300 AP2 domain 1 (GST-tagged)
# Test: gcPBM binding intensity (ln(normalized median fluorescence intensity)); higher = stronger DNA binding
# How it was run: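 Plasmodium falciparum DNA-binding domains carrying a GST tag were expressed in E. coli and applied for 1 h, at about 25 μg on average, to an Agilent 4 × 180k array. The array held primer-extended double-stranded 36-bp intergenic genomic probes together with negative controls, and binding took place in 1× PBS with 1% milk, 0.2 mg/ml BSA, 0.5% salmon testes DNA and 0.03% Triton X-100. An Alexa488 anti-GST antibody detected bound protein, and the array was scanned at 488 nm. Binding intensity is taken as the highest Masliner-normalised natural-log median intensity across replicate spots of either probe orientation.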
row,Sequence,gcPBM binding intensity (ln)
1,TCCTATAATAACGTCACACATTAAATTTAATAAATT [CACACA_site4506],9.21
2,AGTGCATACATGAATTGTACTTTAAAATAAATTCTA [XGTACX_site8156],8.9
3,AAAAAAAAAAAAAAAACACACATATATCTATAATAT [CACACA_site6665],9.54
4,TATACAAAATATTTTACACACACATATATATACATA [CACACA_site2616],9.88
5,CATTATTTATTTTAATGTACTTATTTTTAAATTGGT [XGTACX_site8038],9.15
6,TCTTTTCAATTATCCTATATTCTTTTATTTTTAATT [GTGCAC_negctrl_site326],9.39
7,CATACACCCATACATACACACATACATACACCCATA [CACACA_site5124],9.78
8,AACAAATAAAGCTATGACATGTTAAAATTGTTTCAC [XGTACX_negctrl_site67],9.29
9,ATATCTAAATATATTACACACAGATATCTTCCTATA [CACACA_site3701],9.58
10,AGAGAAAAATATTTGGACAAAAATAATATAATATAT [CACACA_negctrl_site656],9.34
11,ATAAAGGAATTTTATACACACAACATATAAATATAT [CACACA_site7365],9.75
12,ATTCGTATGAGCATAACACACAATATCGATATTTCT [CACACA_site4165],9.46
13,TTAACATTATATGAAGGTACAGAAAAAAAAAAATTA [XGTACX_site8530],9.2
14,TTTCTTATAGATTTTAATCCTCTATCAAAAAAAGAA [GTGCAC_negctrl_site162],8.53
15,CATACAGTATTATACTGTACCCATACAAAAAAATAT [XGTACX_site6130],9.36
16,AAATAAAAAAAATTTGCACACCTTCAAAGTAATATA [CACACA_site1583],9.41
17,TTTTTAATATTCTATGCATGCATCGCATATTTGGTT [TGCATGCA_site1004],9.26
18,CTTATTTAAGAGTATGAACACACATCATACACATAT [CACACA_site9205],9.47
19,AAAATATAATATAATGCACACATAAACAAAAAAAAA [CACACA_site8161],9.78
20,TTTTTTTTTTTTTTGGGTACATAATAATAACAAGTG [XGTACX_site1034],8.85
21,TTTTATTTAACTCATAATTTTTTAAAAAACAATTAT [XGTACX_negctrl_site19],8.88
22,CATGTAATATTAAACACACACTCATATAACTCAATA [CACACA_site4212],9.68
23,CACATATACTTCTGTGCACACGAATATTTTTCTTCT [CACACA_site1408],9.61
24,ATACATATATAAATACGTACATATATAATTATATAT [XGTACX_site8178],9.28
25,AAATGAGAAGAAATACGTACATATAATAAAATAATT [XGTACX_site4439],9.53
26,ATGCATAAATTTTGAAGTACAAAAAAAAAAAATAAA [XGTACX_site7282],9.05
27,TTTCATTGGTTTATAAAATTATGAGATCTTAAAGAC [CACACA_negctrl_site1484],8.92
28,TCTGTAAAGTAATGGACACACAATATATCCATTTAT [CACACA_site1536],9.27

row,Sequence,gcPBM binding intensity (ln)
1,GAATAATATGGACATACACACATATACATACAGATA [CACACA_site5200],9.91
2,ATATATATATATATATGTACATATATTTATATTTAT [XGTACX_site6179],8.92
3,GCTACGTAAAAAATATGTACATATGAAATATTTTGC [XGTACX_site5111],8.98
4,TTATATATCTATAATACACACATAATAATATATTTA [CACACA_site7423],9.24
5,CATATATATATATATTGTACAAGATTGTTTTTTTAT [XGTACX_site3913],9.19
6,ATGATCATAAGACACACACACAAAAAAAAAAAAAAA [CACACA_site6936],9.59
7,TCTGTGCACGCATGAAGTACAAAAAAGGTTTCCAGT [XGTACX_site5049],9.32
8,TATATTTTTTTAATATGTACATATATATATAAAACA [XGTACX_site2171],8.86
9,CTATATACTAAATGCACACTTATATATTTATATATA [CACACA_site2454],9.36
10,ATATATAATAAATACACACACATGTATTTATAAATA [CACACA_site5135],9.62
11,TGAATTATAAATTATAGTACTTTATAATATGAACAT [XGTACX_site2317],8.92
12,ATATAAATAAATTAGTGAAAAAAAAAAAATTTTTTT [CACACA_negctrl_site945],9.12
13,CTCCATATGAAACACACACACAAATGAAAAAAATAT [CACACA_site3018],10.1
14,AATTAACAAAGACACACACACACACGCACAAAAAAA [CACACA_site6388],10.2
15,TTTAAAAAAATATATACACACATATATATATATATA [CACACA_site617],9.13
16,ATAGAAATAAAATAAAATAAAAAAAAAATAATGAAA [CACACA_negctrl_site1565],9.45
17,TTATAATAAGATTGTTGTACTTATATTCCTTCTATA [XGTACX_site3173],9.27
18,AATACATATTCAAAGGTGCAAAATAAAAATATACAT [GTGCAC_site9743],9.63
19,TAGTTATAAGAGTTACAAAGAATACCGGAAATATAG [CACACA_negctrl_site1829],9.39
20,TGTTTTGTATATATAGCATGCAGTAAGGGAAAAAAA [TGCATGCA_site652],9.29
21,TCGTTTCATATTTATCATGAGATAATCACACGAACA [TGCATGCA_negctrl_site497],9.08
22,AATGTCAATTTTAATAGTACACAAATATATATATAT [XGTACX_site521],9.18
23,AATGACCATTTTTAAAATTACAAATACATACAACTG [TGCATGCA_negctrl_site420],9.22
24,AAGTATTATTATAAGACACACATGTATTTAAGTATA [CACACA_site4922],9.42
25,TAATTTTTATTTATAATAATATATGACATATATCCA [XGTACX_negctrl_site359],8.91
26,GGAATAATATAAAACACACACATAAATATAAATATA [CACACA_site3376],9.9
27,TAATTTTTTTTTTTTTTTTTTTTTTTTTTTTTCCTT [CACACA_negctrl_site1095],8.54

# — the supplement of paper PMC11417369
